According to PubChem BioAssay AID1918936 (Molecular Pharmacology Branch, DTP, NCI, 2023):
Some entries of the source have several records that differ or are many. The other results are left out here. There may be further records. Values given together are repeats in other runs, samples, wells, individuals or studies. Counts like (3×) give the number of equal values in this list. Marks such as [2022-09] give the month of the run.

Tested on: 349418-098-R-PDC complex spheroid viability
Assay: Anticancer human tumor 349418-098-R-PDC patient-derived lung adenocarcinoma cell line growth inhibition
Settings: stronger effect = lower value
Description: Multicellular complex tumor spheroid response to LSD1 Inhibitor Iadademstat in combination with a variety of drugs and investigational agents in selected tumor cell lines
The current study was undertaken to assess response to LSD1 inhibitors in combination with standard-of-care drugs and investigational agents in solid tumor complex spheroid models as well as in the K-562 leukemia. Complex spheroids include a stromal component modeled by human endothelial cells (HUVEC) and fibroblasts modeled by human mesenchymal stem cells (MSCs). The concentration ranges selected for each drug and investigational agent were based upon clinically achievable concentrations if the clinical Cmax of the agent was known.
Compounds. The drugs and investigational agents used in this study are listed on Table 1. All of the agents used, including staurosporine (NSC755774) and gemcitabine (NSC613327), were obtained from the Developmental Therapeutics Program, NCI. FDA-approved anticancer drugs are available from the NCI at http://dtp.nci.nih.gov/branches/dscb/oncology_drugset_explanation.html. Drugs and investigational agents were >95% pure by proton nuclear magnetic resonance (NMR) and liquid chromatography/mass spectrometry (LC/MS). Stock solutions were prepared at 400x in DMSO, stored at -70 degrees C, and diluted in fresh medium prior to their use. The final concentration of DMSO in cell culture wells never exceeded 0.25% (v/v). The FDA-approved anticancer drug set is available from the Developmental Therapeutics Program at https://dtp.cancer.gov/organization/dscb/obtaining/available_plates.htm. All drugs and investigational agents were tested over a range starting from a high concentration at or near the clinical Cmax and decreasing in half-log increments. If the clinical Cmax for an agent had not been determined, the highest concentration tested was 10 microM.
Cell Lines. The patient-derived cancer cell (PDC) lines: 292921-168-R-J2-PDC, K24384-001-R-PDC, and 521955-158-R2-J5-PDC pancreatic carcinomas, 556581-035-R-J1 ovarian carcinoma, 324938-238-R-J1-PDC, 855422-203-R-J1-PDC and 883617-216-R-J1-PDC urothelial bladder carcinomas, 743489-274-T-PDC renal cell carcinoma, 138582-R-J1 Merkel cell tumor, K60290-347-R-J1 and K57222-313-R-J1-PDC glioblastomas, 653999-131-R-J2-PDC, LG0703-F948-PDC, and 349418-098-R-PDC non-small cell lung carcinomas, 885512-296-R-J2-PDC, 171881-019-R-J1-PDC breast carcinomas and 186277-243-T-J2-PDC and 233499-124-R-J2-PDC colon carcinomas were obtained from the NCI Patient-Derived Models Repository (PDMR, https://pdmr.cancer.gov). The established cell lines NCI/ADR-RES (RRID:CVCL_14520 and OVCAR-5 (RRID:CVCL_1628) ovarian carcinomas, 786-O (RRID:CVCL_1051) and A498 (RRID:CVCL_A498) renal cell carcinoma, NCI-H211 (ATCC, cat. CRL-5824; RRID:CVCL_1529), NCI-H196 (ATCC, cat. CRL-5823, RRID:CVCL_1509), SW 1271 (ATCC, cat. CRL-2177, RRID:CVCL_1716) and NCI-H1876 (ATCC, cat. CRL-5902, RRID:CVCL_1503) small cell lung carcinomas, MDA-MB-231 (RRID:CVCL_0062) and MDA-MB-468 (RRID:CVCL_0419)breast carcinomas (10-12). Pooled donor human umbilical vein endothelial cells (HUVEC, Lonza, cat. CC-2519) and human mesenchymal stem cells (hMSC, Lonza, cat. PT-2501) were purchased from Lonza (Walkersville, MD).
Cell Culture. All cells were maintained in an incubator at 37 degrees C and 5% CO2 with 95% humidity. The PDC lines were cultured according to standard operating procedures established by the NCI PDMR (https://pdmr.cancer.gov). Briefly all PDCs were thawed and cultured in Matrigel-coated flasks prepared with a working solution of 1X Ham's F-12 nutrient mix, without supplementation (Invitrogen, Waltham, MA, cat. 11765054), 100 U/mL penicillin-streptomycin (Invitrogen, cat. 15140122), and 2.5% Matrigel (Corning Inc., Corning, NY, cat. 354248) for the first three passages. […]
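Further: spheroids exposed to agents for seven days before readout; 100% = DMSO vehicle control wells.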

Structure (SMILES)	viability, T/C (compound alone 0.316 µM)	viability, T/C (compound alone 3.16 µM)	viability, T/C (compound alone 10 µM)	viability, T/C (compound alone 3 µM)	viability, T/C (compound alone 0.1 µM)	viability, T/C (compound alone 1 µM)
NC1CC1c1ccc(-c2cccc(O)c2)cc1 (configuration not stated)	121 (2×), 104, 116 (2×), 109 (2×), 118, 117, 112, 111, 107, 106 (2×), 122, 114 (2×), 119, 108 (2×), 113, 103, 110, 95.9, 81.8%	104, 117, 116, 108 (3×), 120, 119 (2×), 121, 112 (3×), 113, 115, 110, 109 (2×), 123 (2×), 111, 102, 107, 106, 92.5%	85.4, 92.8, 95.2, 78.8, 97, 97.5, 100, 85.5, 93.9, 94.8, 102, 94.4, 66.8, 99.3, 106, 88.3, 98.4, 99.5, 93.3, 91.1, 93.5, 86.5, 78.7, 70.4, 81.9%	–	–	–
O=C(C=Cc1cccc(S(=O)(=O)Nc2ccccc2)c1)NO	–	–	–	1.39% [2022-01] and 91.5% [2022-02]	–	–
NC1CCC(NC2CC2c2ccccc2)CC1 (configuration not stated)	–	–	88.1, 89.3, 86.1, 102 (3×), 90.6, 96.8, 90.5, 95.3, 81.5, 84.5, 92.2, 80.8, 85.6, 85.4, 96.9, 84.2, 85.2, 83.7, 88.8, 83.4, 108%	–	104 (2×), 103 (4×), 98.2, 102 (3×), 96.3 (2×), 110 (2×), 109 (2×), 99.4, 107, 92.9, 82.2, 108, 90.9, 114, 93.7%	93.2, 97.9, 111 (2×), 112 (3×), 94.8, 115, 85.4, 120, 106 (2×), 103, 108 (2×), 113, 109, 88.3, 107 (3×), 104, 116, 105%
